# From PubChem BioAssay AID2451 (National Center for Advancing Translational Sciences (NCATS), 2010)
# Among all 290,000 compounds or so, about 2,100 (0.72%) were called active. This list was built around the results that the source calls inconclusive (neither active nor inactive); the mix of calls is not that of the screen. The call rests on the fitted dose curve; in most records, active means well fitted inhibition curve with a large enough effect; inconclusive means small, poorly fitted or top-dose-only effect, or effect the other way; inactive means flat fitted curve, though single readings scatter. Where the call is inconclusive, the potency comes from a doubtful curve fit.
# Biological target: Fructose-bisphosphate aldolase (Giardia intestinalis (strain ATCC 50803 / WB clone C6)) (UniProt A8B2U2)
# Assay: qHTS Assay for Inhibitors of Fructose-1,6-bisphosphate Aldolase from Giardia Lamblia; further: nearly all actives have a fitted effect of over 55% in size
# Settings: purified Giardia FBPA; series mostly up to 59.6 µM
# Procedure, shortened: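 Giardia FBPA (40 nM reagent) was preincubated 10 min at RT with compound (up to 57.5 uM final), then substrate plus GAPDH/TPI/NAD/arsenate coupling system with diaphorase/resazurin was added; resorufin fluorescence (525/598 nm) was read after 20 min.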
# Potency means the concentration at half of the fitted maximal effect; tags describe the fitted curve by direction and shape.
# Chain of UniProt A8B2U2 (A8B2U2 whole entry, looked up): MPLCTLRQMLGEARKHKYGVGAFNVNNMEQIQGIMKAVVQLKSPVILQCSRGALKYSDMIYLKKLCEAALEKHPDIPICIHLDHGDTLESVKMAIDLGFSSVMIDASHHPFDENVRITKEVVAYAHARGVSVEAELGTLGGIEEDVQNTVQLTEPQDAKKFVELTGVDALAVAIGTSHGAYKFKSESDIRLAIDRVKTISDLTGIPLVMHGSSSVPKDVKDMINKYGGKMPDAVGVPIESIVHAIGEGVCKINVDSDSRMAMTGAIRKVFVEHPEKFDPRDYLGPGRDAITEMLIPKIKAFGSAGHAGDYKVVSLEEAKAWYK
row,Compound,Potency
1,CC(C)(C)NCCCOc1ccc(Cl)cc1C(C)(C)C,"inconclusive: 15.8 µM [inhibitor, single point]"
2,COc1ccc(N2CCN(Cc3csc(C)c3-c3ccc(C)cc3)CC2)cc1,"inconclusive: 22.4 µM [inhibitor, partial curve]"
3,COc1cccc2cc(-c3ccnc(N)n3)oc12,inactive
4,S=c1[nH]nc(-c2ccccc2)n1/N=C/c1cccc(Br)c1,"inconclusive: 10 µM [activator, partial curve]"
5,Fc1cccc2sc(Nc3nc4cc5c(cc4s3)OCCO5)nc12,inactive
6,Cc1cn([C@H]2C[C@@H](N=[N+]=[N-])[C@@H](CO)O2)c(=O)[nH]c1=O,inactive
7,C(=Nc1cccc2c(N=Cc3ccco3)cccc12)c1ccco1,"inconclusive: 2.81 µM [inhibitor, full curve]"
8,C=CCNC(=S)NC(=O)c1ccc(C)c(Br)c1,"inconclusive: 19.9 µM [inhibitor, single point]"
9,NC(=S)N/N=C/c1ncc(C(F)(F)F)cc1Cl,active: 6.29 µM
10,OCC[n+]1c2ccccc2nc2ccc(N3CCOCC3)cc21,"inconclusive: 19.9 µM [inhibitor, partial curve]"
11,Cn1nnc(NC(=S)NC(=O)c2cc3ccccc3o2)n1,"inconclusive: 3.15 µM [inhibitor, full curve]"
12,CCC1=NN(C(=O)c2cccc([N+](=O)[O-])c2)C(O)(c2ccc(C)cc2)C1 (centres undefined),"inconclusive: 12.6 µM [activator, partial curve]"
13,Cc1csc(/C(=N/OC(=O)c2ccco2)C(N)=O)n1,"inconclusive: 22.3 µM [inhibitor, single point]"
14,COc1ccccc1OCC(=O)NCCSCc1ccccc1Cl,inactive
15,Cc1cc(=O)n(CC(C)C)c(O)c1C#N,"inconclusive: 7.06 µM [inhibitor, partial curve]"
16,COc1ccc(/C=N/NC(=O)c2nc(-c3ccccc3)cc(-c3ccccc3)n2)cc1O,inactive
17,O=C(COc1ccc(Cl)cc1)Nc1nnc(C2=COCCO2)o1,"inconclusive: 31.5 µM [inhibitor, single point]"
18,COc1ccc(/C=N/Nc2nc(N)cc(Cl)n2)cc1OC,inactive
19,Cc1nc(N2CCN(c3ccccc3)CC2)[nH]c(=O)c1C,inactive
20,CC1=NN(C(N)=S)C(=O)C1N=Nc1ccc(Br)cc1 (centres undefined),"inconclusive: 15.8 µM [activator, partial curve]"
21,C=CCN1CCc2c(cc(O)c(O)c2Cl)C(c2cccc(C)c2)C1 (centres undefined),inactive
22,CCN(CC)CCNC(=O)CCc1nnc2ccc(N3CCC(C)CC3)nn12,inactive
23,COc1ccc(C(C)=O)cc1CSc1nnc(-c2ccc(Cl)cc2)n1-c1ccccc1,inactive
24,CC(=O)Nc1ccc(CN2CCc3c([nH]c4ccccc34)C2C(C)(C)C)cc1 (centres undefined),inactive
25,N=C(N)SCc1ccc(O)c([N+](=O)[O-])c1,"inconclusive: 15.8 µM [inhibitor, single point]"

row,Compound,Potency
1,Brc1ccc(C=Nc2ccc3c(c2)OCCOCCOCCO3)s1,"inconclusive: 12.6 µM [inhibitor, partial curve]"
2,COc1ccc2c(c1)Cc1sc(NC(C)=O)nc1-2,"inconclusive: 22.3 µM [inhibitor, partial curve]"
3,Cc1c(S(=O)(=O)c2ccccn2)c(N)n(Cc2ccccc2Cl)c1C,inactive
4,COc1ccc(CNCc2ccncc2)cc1OC,"inconclusive: 14.1 µM [inhibitor, partial curve]"
5,CCCCOC(=O)CSC1=C(C#N)C(c2ccccc2OC)C(C#N)C(=O)N1 (centres undefined),"inconclusive: 17.7 µM [inhibitor, single point]"
6,CN(Cc1ccccc1)C1CCN(Cc2ccccc2[N+](=O)[O-])CC1,"inconclusive: 15.8 µM [inhibitor, partial curve]"
7,Cc1ccc(N2CC(C(=O)NCc3ccc(C)n3C)CC2=O)cc1 (centres undefined),"inconclusive: 11.2 µM [inhibitor, partial curve]"
8,CC(=O)c1ccc(NC(=O)C(C)Sc2n[nH]c(-c3cccnc3)n2)cc1 (centres undefined),"inconclusive: 25.1 µM [inhibitor, partial curve]"
9,O=C(NC(=S)Nc1ccccc1N1CCCC1)c1ccco1,active: 14.1 µM
10,O=C(/C=C/Nc1ccc(S(=O)(=O)Nc2ncccn2)cc1)c1ccc2ccccc2c1,inactive
11,Cc1ccc(NC(=O)NC(=S)NC(=O)c2ccccc2)cc1,"inconclusive: 3.97 µM [inhibitor, full curve, poor fit]"
12,Cc1ccc(C)c(OCCCCN2CCNCC2)c1C,"inconclusive: 39.8 µM [inhibitor, single point]"
13,CN1CCN(CCC(=O)N2c3ccccc3Sc3ccc(C(F)(F)F)cc32)CC1,"inconclusive: 17.7 µM [inhibitor, single point]"
14,CC(C)(C)c1ccccc1NC(=S)NCc1ccccc1,"inconclusive: 28.1 µM [activator, partial curve]"
15,Cc1ccc(C)c(NC(=S)NNC(=O)c2csc3c2CCCC3)c1,inactive
16,CC1(C)Oc2ccc3ccc(=O)oc3c2-c2cn[nH]c21,inactive
17,CCOC(=O)c1c(C)[nH]c2c1cc(O)c1ccccc12,"inconclusive: 17.7 µM [inhibitor, single point]"
18,O=C(CN1CCN(c2ncccn2)CC1)N1CCCC1,"inconclusive: 19.9 µM [inhibitor, partial curve]"
19,CC1(C)CC(=O)C2=C(C1)NC(=S)C(C#N)C21CCCCC1 (centres undefined),"inconclusive: 6.29 µM [inhibitor, full curve, poor fit]"
20,COc1ccc2ccccc2c1C1CC(=O)N2CN(Cc3ccco3)CSC2=C1C#N (centres undefined),"inconclusive: 5 µM [inhibitor, full curve]"
21,CC1CCCCC1NC(=O)CSc1nnc(-c2ccncc2)n1CCCN(C)C (centres undefined),"inconclusive: 15.8 µM [inhibitor, partial curve]"
22,O=C(O)c1cc(=O)c2ccc(Cl)cc2[nH]1,inactive
23,Cc1nnc(NC(=O)CN2CCN(Cc3ccccc3Cl)CC2)s1,active: 4.47 µM
24,S=C(Nc1nc2c(s1)CCCC2)NC1CC1,active: 14.1 µM
